# PubChem BioAssay AID463173 (ICCB-Longwood Screening Facility, Harvard Medical School, 2010)
# About 1,700 (3.3%) of roughly 52,000 compounds were called active. Cut-off read from the data, not from the text of the source: active = survival mostly below about 52% (no sharp cut-off); inactive = mostly above about 56%. The list shows a part of the results.
# System: Wild type
# Assay: growth inhibition of S. aureus wild type versus tarO mutant, primary screen, teichoic acid synthesis inhibitors, RN4220, OD600 (AID 463173)
# Details: S. aureus RN4220 wild type/DeltatarO growth, OD600, 18 h, stronger effect = lower value, screened at 18.75 µg/mL (by protocol)
row,SMILES,survival
1,CC1(C)Cc2ccccc2-c2nnc(-c3ccccc3)n21,inactive: 95%
2,COc1cccc(C2CC(=O)Nc3c2c(=O)nc2c(C)cccn32)c1 (stereo not given),inactive: 70%
3,CCOc1ccccc1NC(=O)CSc1ncc(S(=O)(=O)c2ccc(C(C)(C)C)cc2)c(=O)[nH]1,inactive: 83%
4,O=C(CN(C(=O)Cn1nnc(-c2ccc(F)cc2)n1)c1ccccc1C(F)(F)F)NCc1ccco1,inactive: 116%
5,CCCCNC(=O)CCn1c(=O)c2cccn2c2ccc(F)cc21,inactive: 77%
6,CC1CCN(c2nn3c(=O)c(C(=O)NCc4ccc(Cl)cc4)cnc3s2)CC1,inactive: 72%
7,Cc1noc(Cn2c(=O)c3ccccc3n(CC(=O)Nc3cccc(Cl)c3C)c2=O)n1,inactive: 70%
8,CC(=O)N1CCCc2cc(S(=O)(=O)N(C)CC(=O)Nc3ccc(C)cc3C)ccc21,inactive: 72%
9,CCOc1ccccc1NC(=O)C1CCN(c2ncccn2)CC1,inactive: 111%
10,N#Cc1nc(/C=C/c2ccc(F)cc2)oc1N1CCN(c2ccccc2)CC1,inactive: 80%
11,CC(C)c1ccc(OCC(=O)Nc2c(Cl)ccc3nsnc23)cc1,inactive: 48%
12,Cc1ccccc1-n1cc(-c2ccccc2)nc1SCC(=O)Nc1ccc(F)cc1,inactive: 69%
13,CC(C)C(NC(=O)OCc1ccccc1)C(=O)N1CCOCCOCCOCC1 (stereo not given),inactive: 101%
14,COc1ccc(-n2c(=O)c3c4c(sc3n(Cc3cc(C)ccc3C)c2=O)CN(C(C)=O)CC4)c(OC)c1,inactive: 129%
15,O=C(Nc1cccc(NC(=O)c2ccc(Br)o2)c1)c1ccccc1,inactive: 78%
16,COc1cccc(C2c3c(oc4ccc(C)cc4c3=O)C(=O)N2CCCN2CCOCC2)c1OC (stereo not given),inactive: 131%
17,Cc1cccc(-c2noc(-c3cccnc3NCc3ccco3)n2)c1,inactive: 74%
18,Cc1ccc(CNc2nc3ccccc3n3c(C)nnc23)cc1,inactive: 87%
19,CCCn1c2ccccc2c2cnn(CC(=O)N3CCC(C(=O)OCC)CC3)c(=O)c21,inactive: 87%
20,COc1ccccc1NC(=O)N1CCNCC1,inactive: 107%
21,COc1ccc(C2C(=O)N(C3CCC(C)CC3)CC(=O)N2Cc2ccccc2Cl)cc1OC (stereo not given),inactive: 71%
22,COC(=O)C1(C(C)C)NC(c2ccccc2OC)C2C(=O)N(C)C(=O)C21 (stereo not given),inactive: 104%
23,O=C(NCCN1CCN(c2ccccc2)CC1)Nc1ccccc1Br,inactive: 76%

row,SMILES,survival
1,Cc1ccc(Sc2c(C)nn(C(=O)COc3ccc(F)cc3)c2C)cc1,inactive: 85%
2,Cc1cccc(CNC(=O)C2CCN(c3nnc(-n4c(C)ccc4C)s3)CC2)c1,inactive: 83%
3,Cc1ccc(N2CC(NC(=O)c3ccc(S(=O)(=O)N4CCOCC4)cc3)CC2=O)cc1C (stereo not given),inactive: 128%
4,Cc1cc2oc(=O)c(CC(=O)O)c(C)c2c2occ(-c3ccc(F)cc3)c12,inactive: 56%
5,Cc1cccc(-c2noc(CN(C(=O)c3ccccc3Cl)C(C)C)n2)c1,inactive: 86%
6,O=C(c1ccc2c(c1)OCCO2)N(Cc1cccnc1)c1nc2c(F)cccc2s1,inactive: 83%
7,COc1ccc(CCNC(=O)CCCn2c(=O)c3ccccc3n(Cc3ccc(F)cc3Cl)c2=O)cc1OC,inactive: 125%
8,Cn1c(C(=O)NCCc2ccccc2)cc2c(=O)n3ccccc3nc21,inactive: 80%
9,Cc1ccc(CNc2nc3ccccc3c3nc(-c4cccc(C)c4)nn23)cc1,inactive: 26%
10,COc1ccc(Cn2c(CNS(=O)(=O)c3ccc4c(c3)CCCC4)nc3cccnc32)cc1,inactive: 133%
11,CC(=O)Nc1ccc2c(c1)C(=O)N(c1ccccc1)C2=O,inactive: 105%
12,COc1ccc(CNC(=O)CCc2c(C)nn(-c3ccc(N4CCCCC4)nn3)c2C)c(OC)c1,inactive: 64%
13,Cc1ccc2c(c1)c1c(c(=O)n(Cc3ccccc3)c(=O)n1Cc1cccc(C(F)(F)F)c1)n2C,inactive: 68%
14,O=C(c1cnc(N2CCCCC2)c2ccccc12)N1CCN(c2ccccc2F)CC1,inactive: 70%
15,CCCSc1oc(-c2cccs2)nc1S(=O)(=O)c1ccc(Cl)cc1,inactive: 66%
16,O=C(CSC1=Nc2ccccc2N=C(c2ccc(F)cc2)C1)NCc1ccccc1,inactive: 129%
17,CCOC(=O)c1c(N)sc2c1CN(C(=O)OC)N(C(=O)OC)C2,inactive: 113%
18,Cc1ccc(-n2ncc(C(=O)NCCCN3CCN(c4cccc(Cl)c4)CC3)c2-n2cccc2)cc1,inactive: 59%
19,CC(=O)N1CCc2cc(CNS(=O)(=O)c3ccc(Br)s3)ccc21,inactive: 45%
20,c1csc(C2=NC(c3ccncc3)=Nc3ccccc3N2)c1,inactive: 93%
21,CC1CCCN(Cc2cn3c(-c4cccc(Br)c4)nnc3s2)C1 (stereo not given),inactive: 71%
22,O=C(NCCc1ccc(Cl)cc1)c1ccc(Cn2c(=O)c3cccn3c3cccnc32)cc1,inactive: 84%
23,CCOc1ccc(C(=O)NCCc2sc3nc(-c4ccc(Cl)cc4)nn3c2C)cc1OCC,inactive: 82%

row,SMILES,survival
1,COc1cccc(CNC(=O)c2nn(-c3ccccc3Cl)nc2CO)c1,inactive: 92%
2,Cc1ccccc1C(=O)NCc1nc2cccnc2n1Cc1ccccc1,inactive: 51%
3,CC(C(=O)Nc1cc(C(F)(F)F)ccc1Cl)n1nnc2sc3c(c2c1=O)CCCC3 (stereo not given),inactive: 71%
4,Cc1ccc2oc(-c3ccc(C)c(NC(=O)c4ccc(C(C)(C)C)cc4)c3)nc2c1,inactive: 125%
5,CCOc1ccccc1C(=O)Oc1c(Sc2ccccc2)c(C)nn1C(C)(C)C,inactive: 64%
6,COc1ccc(S(=O)(=O)c2c(Nc3ccc(F)cc3)sc(C(=O)c3ccc4c(c3)OCO4)c2N)cc1,inactive: 135%
7,Cc1ccc(-c2csc(=Nc3ccccc3)n2Cc2ccc3c(c2)OCO3)cc1C,inactive: 91%
8,CCN1CCN(C(c2ccccc2)c2sc3nc(-c4ccco4)nn3c2O)CC1 (stereo not given),inactive: 83%
9,CCCn1c(C(O)c2cc(OC)c(OC)c(OC)c2)nc2ccccc21 (stereo not given),inactive: 111%
10,COc1ccccc1C(=O)n1nc(-c2ccco2)nc1NCc1ccc(Cl)cc1,inactive: 77%
11,COc1ccc(N2CCN(C(=O)c3ccc4c(c3)N(Cc3ccc(F)cc3)C(=O)c3ccccc3S4=O)CC2)cc1 (stereo not given),inactive: 139%
12,N#Cc1nc2c(nc1C#N)-c1ccccc1C2=O,inactive: 74%
13,COc1ccccc1NC(=O)c1c(NCc2ccc(C)o2)sc2c1CCC(C)C2 (stereo not given),inactive: 97%
14,COCCc1nn2c(=O)cc(COC(=O)COc3ccc(F)cc3)nc2s1,inactive: 120%
15,COc1ccc(-c2cn3c(n2)sc2cc(C(=O)NCCCN4CCCCCC4)ccc23)cc1,inactive: 66%
16,CCCC(=O)Nc1ccc(NC(=O)c2ccc3c(c2)OCO3)cc1,inactive: 116%
17,CCCOC(=O)c1c(NC(=O)C2c3ccccc3Oc3ccccc32)sc2c1CCC(C)C2 (stereo not given),inactive: 80%
18,N#C/C(=C\c1cn(CCOc2ccccc2)c2ccccc12)C(=O)N1CCCC1,inactive: 121%
19,Nc1cc(N)nc(SCC(=O)Nc2ccccc2)n1,inactive: 108%
20,CCC(O)c1cc2c(cc1NC(=O)c1cccc(Br)c1)OCCO2 (stereo not given),inactive: 71%
21,N#Cc1nc(-c2ccc(COc3ccccc3)o2)oc1NCc1ccccc1,inactive: 86%
22,Cc1ccc(CNC(=O)CSc2nc(=O)[nH]c3c2CCCC3)cc1,inactive: 81%
23,CN(C)CCCN(C(=O)c1cccs1)c1nc2ccc(F)cc2s1,inactive: 76%

row,SMILES,survival
1,O=C(CN1C(=O)CCc2cc(S(=O)(=O)N3CCOCC3)ccc21)Nc1cccc(Cl)c1,inactive: 63%
2,CC1(C)Nc2ccccc2C(=O)N1c1ccccc1,inactive: 108%
3,Cc1nc2ccccc2n1CCc1nc2c3ccccc3nc(SCC(=O)Nc3ccc(Br)cc3F)n2n1,inactive: 68%
4,COc1ccc(-c2nc3ccccc3o2)cc1NC(=O)C(C)Oc1ccc(Cl)cc1Cl (stereo not given),active: 8%
5,CC(C)C12CN3CC(C(C)C)(CN(C1)C3c1ccc(Cl)cc1)C2=O (stereo not given),inactive: 62%
6,CN1CCN(c2oc(-c3ccc(COc4ccc(Cl)cc4)o3)nc2C#N)CC1,inactive: 59%
7,COc1ccc(NC(=O)Cn2cnc3sc(C)c(S(=O)(=O)N4CCN(C)CC4)c3c2=O)cc1Cl,inactive: 155%
8,CCCSc1ncc(Cl)c(C(=O)N(Cc2ccc(N(C)C)cc2)C2CCS(=O)(=O)C2)n1 (stereo not given),inactive: 103%
9,CCOC(=O)CNC(=O)N1CCc2cc(S(=O)(=O)N3CCC(C)CC3)ccc21,inactive: 71%
10,CCOC(=O)c1ccc(N2C(=O)c3n[nH]c(C)c3C2c2ccc(C(C)(C)C)cc2)cc1 (stereo not given),inactive: 81%
11,CNC(=O)C1CCC(Cn2c(=O)[nH]c3ccsc3c2=O)CC1 (stereo not given),inactive: 80%
12,Cc1ccccc1-n1c(/C=C/c2c(C)n(C)c3ccccc23)nc2ccccc2c1=O,inactive: 66%
13,CN(c1ccc(C(=O)NCC2CCCO2)cc1)S(C)(=O)=O (stereo not given),inactive: 104%
14,CC(C)(C)OC(=O)N1CCC(c2c(C(=O)N3CCN(c4ncccn4)CC3)cnn2-c2ccccc2)CC1,inactive: 87%
15,Cc1ccc(NS(=O)(=O)c2ccc3c(c2)NC(=O)CCS3)cc1C,inactive: 63%
16,COc1ccc2[nH]c(=O)c(CNCc3ccccc3)cc2c1,inactive: 133%
17,Cc1cccc(OC(=O)c2cc(-c3ccc4c(c3)OCCO4)on2)c1,active: -7%
18,CCOC(=O)c1cccc(NC(=O)c2cc(CN3CCOCC3)on2)c1,inactive: 71%
19,CCOC(=O)c1ccc(NC(=O)COCc2cc(-c3ccc4c(c3)OCO4)on2)cc1,inactive: 88%
20,CCN(CC)S(=O)(=O)c1ccc(C(=O)Nc2nc3c(Cl)cc(Cl)cc3s2)cc1,inactive: 130%
21,CC(=O)N1CCc2c(sc3c2c(=O)n(-c2ccccc2)c(=O)n3CC(=O)Nc2ccccc2C)C1,inactive: 94%
